Paper PMC5531264 (Biochemistry, 2016)

B1: Sterile Alpha Motif and HD Domain Protein 1 (SAMHD1), wild type, full length, human (enzyme)
chain: not shown
B2: SAMHD1 Δ[…] (truncated form lacking the C-terminal […]) (domain or fragment)
chain: not shown

Assays:
cross-linking [1] = target: the molecule itself; experiment: cross-linking
cross-linking [2] = target: the molecule itself; experiment: cross-linking; remark: listed apart in the source

| Protein | stoichiometry N (cross-linking [1]) | binding result (cross-linking [2]) |
| --- | --- | --- |
| B1 | 4 |  |
| B2 |  | binds |
